Experimental data: PMC9976968
These are yes or no findings as the source states them, for the method shown. In cells and extracts the contact can be indirect. Some results given as binding are weak or reduced against the parent protein; the word gives no strength. Sequences can lack the tags named with a protein.

Amino acid sequences for entries named in this document (tags omitted).
UniProt Q7TPR4: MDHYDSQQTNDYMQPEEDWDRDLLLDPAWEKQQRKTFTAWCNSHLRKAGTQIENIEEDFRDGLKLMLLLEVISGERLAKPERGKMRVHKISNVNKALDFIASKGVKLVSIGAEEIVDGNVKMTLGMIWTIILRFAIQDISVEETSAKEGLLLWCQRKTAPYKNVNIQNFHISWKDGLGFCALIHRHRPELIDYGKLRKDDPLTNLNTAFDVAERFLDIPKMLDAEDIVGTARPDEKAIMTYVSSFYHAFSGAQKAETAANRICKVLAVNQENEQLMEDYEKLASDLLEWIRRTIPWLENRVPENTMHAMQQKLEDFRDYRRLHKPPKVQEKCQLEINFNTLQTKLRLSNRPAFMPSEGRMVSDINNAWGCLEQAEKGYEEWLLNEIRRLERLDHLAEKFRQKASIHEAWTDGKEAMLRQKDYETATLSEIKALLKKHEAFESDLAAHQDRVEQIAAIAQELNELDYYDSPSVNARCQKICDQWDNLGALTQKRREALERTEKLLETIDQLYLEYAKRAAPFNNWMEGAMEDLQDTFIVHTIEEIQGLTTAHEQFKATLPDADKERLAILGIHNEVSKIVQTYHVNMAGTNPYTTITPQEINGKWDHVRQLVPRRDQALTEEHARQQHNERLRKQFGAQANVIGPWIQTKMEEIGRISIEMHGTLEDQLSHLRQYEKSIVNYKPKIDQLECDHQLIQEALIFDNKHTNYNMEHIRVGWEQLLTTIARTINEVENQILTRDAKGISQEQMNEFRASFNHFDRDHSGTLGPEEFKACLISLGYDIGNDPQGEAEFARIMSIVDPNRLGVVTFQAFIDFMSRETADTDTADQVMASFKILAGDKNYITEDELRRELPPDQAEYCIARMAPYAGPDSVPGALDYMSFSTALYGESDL
UniProt Q9D9L5: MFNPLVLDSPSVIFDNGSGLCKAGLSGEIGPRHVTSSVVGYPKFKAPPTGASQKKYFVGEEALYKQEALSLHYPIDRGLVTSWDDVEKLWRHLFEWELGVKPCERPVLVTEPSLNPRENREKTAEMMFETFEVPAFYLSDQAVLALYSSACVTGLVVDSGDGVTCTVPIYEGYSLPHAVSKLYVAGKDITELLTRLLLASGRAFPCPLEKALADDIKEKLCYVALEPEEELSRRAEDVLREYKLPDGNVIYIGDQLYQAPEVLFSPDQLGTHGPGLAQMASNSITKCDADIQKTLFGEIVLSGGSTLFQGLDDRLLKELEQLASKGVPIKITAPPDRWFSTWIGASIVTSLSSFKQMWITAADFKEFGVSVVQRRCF
UniProt Q64331: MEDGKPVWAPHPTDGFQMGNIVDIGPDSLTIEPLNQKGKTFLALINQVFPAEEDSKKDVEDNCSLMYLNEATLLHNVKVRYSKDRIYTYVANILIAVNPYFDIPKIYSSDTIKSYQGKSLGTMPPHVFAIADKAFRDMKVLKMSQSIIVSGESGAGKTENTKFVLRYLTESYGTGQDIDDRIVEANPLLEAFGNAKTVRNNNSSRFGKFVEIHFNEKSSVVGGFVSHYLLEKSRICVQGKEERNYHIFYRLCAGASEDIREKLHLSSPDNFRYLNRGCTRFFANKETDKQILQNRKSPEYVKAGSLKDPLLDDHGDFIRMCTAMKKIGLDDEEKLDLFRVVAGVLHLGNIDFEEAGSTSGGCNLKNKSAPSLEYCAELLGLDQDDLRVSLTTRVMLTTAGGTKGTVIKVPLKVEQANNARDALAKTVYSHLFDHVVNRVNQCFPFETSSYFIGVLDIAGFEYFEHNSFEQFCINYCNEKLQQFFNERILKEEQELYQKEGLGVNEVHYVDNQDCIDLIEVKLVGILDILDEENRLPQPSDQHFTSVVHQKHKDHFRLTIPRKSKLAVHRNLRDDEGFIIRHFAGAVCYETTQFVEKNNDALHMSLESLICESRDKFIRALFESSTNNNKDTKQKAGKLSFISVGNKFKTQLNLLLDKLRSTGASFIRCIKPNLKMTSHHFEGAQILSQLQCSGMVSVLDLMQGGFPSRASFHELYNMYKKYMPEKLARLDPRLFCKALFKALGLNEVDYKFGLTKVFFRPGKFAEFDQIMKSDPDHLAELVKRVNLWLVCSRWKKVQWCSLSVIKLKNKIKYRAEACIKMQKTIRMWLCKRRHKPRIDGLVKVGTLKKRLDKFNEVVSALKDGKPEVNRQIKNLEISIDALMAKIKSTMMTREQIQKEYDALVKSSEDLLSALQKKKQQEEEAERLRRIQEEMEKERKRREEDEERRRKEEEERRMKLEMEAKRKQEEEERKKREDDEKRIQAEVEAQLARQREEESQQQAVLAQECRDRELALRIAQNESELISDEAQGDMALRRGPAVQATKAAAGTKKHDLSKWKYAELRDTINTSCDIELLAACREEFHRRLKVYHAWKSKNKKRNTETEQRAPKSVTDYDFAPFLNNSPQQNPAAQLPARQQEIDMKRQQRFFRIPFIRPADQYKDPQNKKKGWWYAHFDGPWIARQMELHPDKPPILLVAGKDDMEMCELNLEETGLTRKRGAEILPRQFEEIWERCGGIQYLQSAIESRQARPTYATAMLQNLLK

T1: YFP-6His-ACTL7A fusion protein (human actin-like 7A) (human) (UniProt Q9Y615)
T1 sequence: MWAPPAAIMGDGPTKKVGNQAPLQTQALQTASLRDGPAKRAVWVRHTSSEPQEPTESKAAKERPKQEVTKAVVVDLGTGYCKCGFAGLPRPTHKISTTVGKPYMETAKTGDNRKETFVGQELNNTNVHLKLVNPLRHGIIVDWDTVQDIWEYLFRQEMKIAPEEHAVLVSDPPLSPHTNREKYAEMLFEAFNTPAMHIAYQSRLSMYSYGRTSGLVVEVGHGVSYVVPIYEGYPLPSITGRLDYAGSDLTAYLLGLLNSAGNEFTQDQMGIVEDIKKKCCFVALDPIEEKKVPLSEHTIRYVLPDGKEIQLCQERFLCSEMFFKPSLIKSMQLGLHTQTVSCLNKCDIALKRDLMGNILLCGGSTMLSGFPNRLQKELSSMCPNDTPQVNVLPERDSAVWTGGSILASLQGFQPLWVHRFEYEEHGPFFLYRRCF


What follows are molecules tested against T1, YFP-6His-ACTL7A fusion protein (human actin-like 7A) (human) (assay: co-IP; soluble fraction of YFP-6His-ACTL7A-transfected HEK293F lysate coincubated 1 h at room temperature with soluble fraction of murine testis lysate; agarose-conjugated GFP nanobody beads overnight at 4°C; low salt buffer (10 mM Tris-HCl, 205 µM CaCl2, 100 mM KCl, pH 7.8); eluted with 100 mM glycine pH 2.8; western blot).

| binding | Molecule |
| --- | --- |
| binds weakly | α-actinin (ACTN1) (from UniProt Q7TPR4 1-892) |
| no binding | ACTRT2 (from UniProt Q9D9L5 1-377) |
| binds | myosin 6 (MYO6) (from UniProt Q64331 1-1262) |
| binds | profilin 4 (PFN4) (protein, UniProt Q9D6I3 1-129) MSHLQNLLLDTLLGTKHVDSAALIKLQEKTLCVTSPGFSVMPSDVRTLLNGFAKNPLLTRREGLYFKEKDYKCVRADDYSLYAKNENTGVVVVKTNMYLVVATYTAGMYPSVCVEATEKLGEYLRKKGN |
| no binding | SPACA1 (protein, UniProt Q9DA48 29-305) SNVTSSGGGVQEPAVAREGESESESESEEEAENEGEVPESETTAEADAEEEVQNRTIVKEVEFGMCTVTCGVGIREVILTNGCPGGESKCVVRVEECRGPVDCGWGKPISENLDSARLSCVHISPENRFKYVWKLLKPDQQPVILTNDSAVLEITREIRPLAFECDTLDNNEMVASVKFTVYTTNELQMRRSSRPDTDAVLVFVLTIGVIICIFVIFVLIFIIINWAAVKSFWGSKTSATEIQSELSSMRYKDSTSLDQSPTDIPVHEDDALSEWNE |
